# Measurements reported in PMC9911399, “Two distinct binding modes provide the RNA-binding protein RbFox with extraordinary sequence specificity”.
# Positions count from the first letter of the chain named. Some of the results follow.
# T1: RBFOX1 RRM RbFoxmut (Fox-RRM*) (Homo sapiens, UniProt Q9NWB1 109-208, R118D;E147R;N151S;E152T)
# T1 sequence: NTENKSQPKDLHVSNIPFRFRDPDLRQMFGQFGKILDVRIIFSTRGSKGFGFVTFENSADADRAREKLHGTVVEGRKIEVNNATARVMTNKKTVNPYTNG
# B1: AUACGGC (DNA:RNA)
# RNA: GGGAGACCGGAAUUCAGAUUGUCCAUACGGCUUAAAUCCCGUCGUAGCCACCA
# DNA 1: CAATCTGAATTCCGGTCTCCC
# DNA 2: TGGTGGCTACGACGGGATT
# B2: GGGUCCG (DNA:RNA)
# RNA: GGGAGACCGGAAUUCAGAUUGUCCGGGUCCGUUAAAUCCCGUCGUAGCCACCA
# DNA 1: CAATCTGAATTCCGGTCTCCC
# DNA 2: TGGTGGCTACGACGGGATT
# B3: UACCUAA (DNA:RNA)
# RNA: B1 RNA with A25U, U26A, A27C, G29U, G30A, C31A
# DNA 1: CAATCTGAATTCCGGTCTCCC
# DNA 2: TGGTGGCTACGACGGGATT
# B4: GCGCUAG (DNA:RNA)
# RNA: B2 RNA with G26C, U28C, C29U, C30A
# DNA 1: CAATCTGAATTCCGGTCTCCC
# DNA 2: TGGTGGCTACGACGGGATT
# B5: AUCGCUC (DNA:RNA)
# RNA: B1 RNA with A27C, C28G, G29C, G30U
# DNA 1: CAATCTGAATTCCGGTCTCCC
# DNA 2: TGGTGGCTACGACGGGATT
# B6: CUUGGGG (DNA:RNA)
# RNA: B1 RNA with A25C, A27U, C28G, C31G
# DNA 1: CAATCTGAATTCCGGTCTCCC
# DNA 2: TGGTGGCTACGACGGGATT
# B7: CCCCAAG (DNA:RNA)
# RNA: B1 RNA with A25C, U26C, A27C, G29A, G30A, C31G
# DNA 1: CAATCTGAATTCCGGTCTCCC
# DNA 2: TGGTGGCTACGACGGGATT
# B8: UUGGAUC (DNA:RNA)
# RNA: B1 RNA with A25U, A27G, C28G, G29A, G30U
# DNA 1: CAATCTGAATTCCGGTCTCCC
# DNA 2: TGGTGGCTACGACGGGATT
# B9: AGGACCU (DNA:RNA)
# RNA: B2 RNA with G25A, U28A, G31U
# DNA 1: CAATCTGAATTCCGGTCTCCC
# DNA 2: TGGTGGCTACGACGGGATT
# B10: UUGCAAG (DNA:RNA)
# RNA: B1 RNA with A25U, A27G, G29A, G30A, C31G
# DNA 1: CAATCTGAATTCCGGTCTCCC
# DNA 2: TGGTGGCTACGACGGGATT
# B11: CCGAGGA (DNA:RNA)
# RNA: B1 RNA with A25C, U26C, A27G, C28A, C31A
# DNA 1: CAATCTGAATTCCGGTCTCCC
# DNA 2: TGGTGGCTACGACGGGATT
# B12: UAUCCAG (DNA:RNA)
# RNA: B2 RNA with G25U, G26A, G27U, U28C, C30A
# DNA 1: CAATCTGAATTCCGGTCTCCC
# DNA 2: TGGTGGCTACGACGGGATT
# B13: GUUUCCG (DNA:RNA)
# RNA: B2 RNA with G26U, G27U
# DNA 1: CAATCTGAATTCCGGTCTCCC
# DNA 2: TGGTGGCTACGACGGGATT
# B14: UAUAGGU (DNA:RNA)
# RNA: B1 RNA with A25U, U26A, A27U, C28A, C31U
# DNA 1: CAATCTGAATTCCGGTCTCCC
# DNA 2: TGGTGGCTACGACGGGATT
# B15: ACAAUGU (DNA:RNA)
# RNA: B1 RNA with U26C, C28A, G29U, C31U
# DNA 1: CAATCTGAATTCCGGTCTCCC
# DNA 2: TGGTGGCTACGACGGGATT
# B16: CCAUGCG (DNA:RNA)
# RNA: B2 RNA with G25C, G26C, G27A, C29G
# DNA 1: CAATCTGAATTCCGGTCTCCC
# DNA 2: TGGTGGCTACGACGGGATT
# B17: GCAUUGU (DNA:RNA)
# RNA: B1 RNA with A25G, U26C, C28U, G29U, C31U
# DNA 1: CAATCTGAATTCCGGTCTCCC
# DNA 2: TGGTGGCTACGACGGGATT
# B18: AUUGGUA (DNA:RNA)
# RNA: B1 RNA with A27U, C28G, G30U, C31A
# DNA 1: CAATCTGAATTCCGGTCTCCC
# DNA 2: TGGTGGCTACGACGGGATT
# B19: UAUCUUC (DNA:RNA)
# RNA: B1 RNA with A25U, U26A, A27U, G29U, G30U
# DNA 1: CAATCTGAATTCCGGTCTCCC
# DNA 2: TGGTGGCTACGACGGGATT
# B20: CAGCCGA (DNA:RNA)
# RNA: B1 RNA with A25C, U26A, A27G, G29C, C31A
# DNA 1: CAATCTGAATTCCGGTCTCCC
# DNA 2: TGGTGGCTACGACGGGATT
# B21: AGUACUC (DNA:RNA)
# RNA: B1 RNA with U26G, A27U, C28A, G29C, G30U
# DNA 1: CAATCTGAATTCCGGTCTCCC
# DNA 2: TGGTGGCTACGACGGGATT
# B22: GUGGAAC (DNA:RNA)
# RNA: B1 RNA with A25G, A27G, C28G, G29A, G30A
# DNA 1: CAATCTGAATTCCGGTCTCCC
# DNA 2: TGGTGGCTACGACGGGATT
# B23: AGUAAGG (DNA:RNA)
# RNA: B1 RNA with U26G, A27U, C28A, G29A, C31G
# DNA 1: CAATCTGAATTCCGGTCTCCC
# DNA 2: TGGTGGCTACGACGGGATT
# B24: GUACGUU (DNA:RNA)
# RNA: B1 RNA with A25G, G30U, C31U
# DNA 1: CAATCTGAATTCCGGTCTCCC
# DNA 2: TGGTGGCTACGACGGGATT
# B25: CGUAUUA (DNA:RNA)
# RNA: B2 RNA with G25C, G27U, U28A, C29U, C30U, G31A
# DNA 1: CAATCTGAATTCCGGTCTCCC
# DNA 2: TGGTGGCTACGACGGGATT
# B26: AGAUGGA (DNA:RNA)
# RNA: B1 RNA with U26G, C28U, C31A
# DNA 1: CAATCTGAATTCCGGTCTCCC
# DNA 2: TGGTGGCTACGACGGGATT
# B27: GCAGCGA (DNA:RNA)
# RNA: B1 RNA with A25G, U26C, C28G, G29C, C31A
# DNA 1: CAATCTGAATTCCGGTCTCCC
# DNA 2: TGGTGGCTACGACGGGATT
# B28: AGUUUGC (DNA:RNA)
# RNA: B1 RNA with U26G, A27U, C28U, G29U
# DNA 1: CAATCTGAATTCCGGTCTCCC
# DNA 2: TGGTGGCTACGACGGGATT
# B29: GGACCUU (DNA:RNA)
# RNA: B2 RNA with G27A, U28C, C30U, G31U
# DNA 1: CAATCTGAATTCCGGTCTCCC
# DNA 2: TGGTGGCTACGACGGGATT
# B30: AUGUAGC (DNA:RNA)
# RNA: B1 RNA with A27G, C28U, G29A
# DNA 1: CAATCTGAATTCCGGTCTCCC
# DNA 2: TGGTGGCTACGACGGGATT
# B31: UGGCGAG (DNA:RNA)
# RNA: B2 RNA with G25U, U28C, C29G, C30A
# DNA 1: CAATCTGAATTCCGGTCTCCC
# DNA 2: TGGTGGCTACGACGGGATT
# Target: T1, RBFOX1 RRM RbFoxmut (Fox-RRM*)
# Assay: EMSA; HiTS-Eq, 1 nM pool, 10 min; buffer printed only for the single-RNA assays: 10 mM Tris pH 7.5, 150 mM NaCl, 3.4 mM EDTA, 0.001% NP-40, 30 C
# Details: tags: His6 N-terminal (pET28a); label: 5' 32P
# How it was run: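 Purified wild-type or mutant RbFox RRM at increasing concentrations was equilibrated with 1 nM of 5′-radiolabelled RNA carrying 7 randomized nucleotides for 10 min in 50 µL. Unbound RNA was separated by 8% native PAGE and sequenced. Relative association constants came from read-count changes of each RNA species compared with the control reaction, normalised to the cognate motif.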
row,Binder,binding signal
1,B1,0.107 KA relative to UGCAUGU
2,B2,0.238 KA relative to UGCAUGU
3,B3,0.0888 KA relative to UGCAUGU
4,B4,0.11 KA relative to UGCAUGU
5,B5,0.0696 KA relative to UGCAUGU
6,B6,0.0861 KA relative to UGCAUGU
7,B7,0.115 KA relative to UGCAUGU
8,B8,0.321 KA relative to UGCAUGU
9,B9,0.0785 KA relative to UGCAUGU
10,B10,0.103 KA relative to UGCAUGU
11,B11,0.0623 KA relative to UGCAUGU
12,B12,0.0998 KA relative to UGCAUGU
13,B13,0.118 KA relative to UGCAUGU
14,B14,0.12 KA relative to UGCAUGU
15,B15,0.0881 KA relative to UGCAUGU
16,B16,0.143 KA relative to UGCAUGU

row,Binder,binding signal
1,B17,0.228 KA relative to UGCAUGU
2,B18,0.171 KA relative to UGCAUGU
3,B19,0.0639 KA relative to UGCAUGU
4,B20,0.0846 KA relative to UGCAUGU
5,B21,0.0527 KA relative to UGCAUGU
6,B22,0.112 KA relative to UGCAUGU
7,B23,0.0904 KA relative to UGCAUGU
8,B24,0.179 KA relative to UGCAUGU
9,B25,0.126 KA relative to UGCAUGU
10,B26,0.0683 KA relative to UGCAUGU
11,B27,0.0835 KA relative to UGCAUGU
12,B28,0.162 KA relative to UGCAUGU
13,B29,0.0608 KA relative to UGCAUGU
14,B30,0.153 KA relative to UGCAUGU
15,B31,0.131 KA relative to UGCAUGU
